Source: the supplement of paper PMC3334620
In all, about 33,000 sequences were measured (“E-score (-0.5 to 0.5)”: median about -0.056, highest 2% from about 0.38 on). The list shows a part of the results.

molecular target: Stb4 (UniProt P50104); assay: PBM E-score (8-mer binding enrichment) (E-score (-0.5 to 0.5)); higher = stronger / more preferred TF binding; most listed sequences are background and not binding sites; settings: protein concentration: 200 nM; construct: GST-DNA-binding domain
Procedure, shortened: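 GST-tagged yeast TFs (full-length or DNA-binding domain) were made by PURExpress in vitro transcription/translation and applied at about 100-200 nM to universal all-10-mer Agilent arrays. The arrays were made double-stranded by primer extension, on fresh or once-stripped slides. Bound protein was detected with fluorescent anti-GST, and scans were normalised with masliner. Each ungapped eight-base word, pooled with its reverse complement, received an E-score (modified Wilcoxon-Mann-Whitney statistic) from the Universal PBM Analysis Suite.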

| Sequence | PBM E-score |
| --- | --- |
| CGCGAGAG | -0.0296 |
| ATGGTCAC | 0.0213 |
| ATGTAGCG | -0.189 |
| AGGCAGTG | -0.193 |
| ACCTCTCG | 0.027 |
| ATAGAGGA | -0.128 |
| GAGATCCC | 0.0839 |
| ACCGGCCA | 0.119 |
| AGGCCGCC | -0.142 |
| GAGATAAA | 0.0723 |
| ACCTCAGA | -0.0978 |
| AATGGATC | 0.08 |
| TGCTTCAA | -0.0517 |
| ACATTCCA | -0.218 |
| ATCCCAGA | -0.098 |
| CCACAGAG | -0.197 |
| CCAAAACA | -0.236 |
| TCTATGAA | -0.218 |
| GGCTGCAA | 0.0959 |
| ACCTGCCA | -0.00358 |
| AATGGAAG | -0.0876 |
| CTGCCGAA | 0.411 |
| ACTGGCGA | -0.254 |
| CACTACCC | 0.0794 |
| ACGACATC | -0.0399 |

| Sequence | PBM E-score |
| --- | --- |
| ACACCGAG | 0.298 |
| CCTGGAAG | -0.298 |
| CAGGATCG | 0.0947 |
| CCCGGAAA | 0.39 |
| ACTAGCGC | -0.189 |
| AAAGAGAG | -0.188 |
| CAATTTCG | 0.0914 |
| ACTAATCA | 0.0094 |
| TCATATCA | -0.0336 |
| CCATCCAC | -0.0741 |
| CCGCAACG | 0.114 |
| ATTATCAA | -0.175 |
| AACTGATC | -0.0701 |
| ATAGGGTG | -0.151 |
| GTTGGATA | -0.0408 |
| CATAAGGA | -0.227 |
| AGTCATCC | 0.192 |
| GCGCGTAC | 0.139 |
| CAGCCCGG | 0.333 |
| ACTCTTGG | -0.203 |
| CTCCGACA | 0.227 |
| CCCATCGG | 0.311 |
| AGGCTCTA | -0.08 |
| ATCGCTCC | 0.0495 |
| TCAAGAGA | -0.0622 |

| Sequence | PBM E-score |
| --- | --- |
| ACGTAAGT | -0.0814 |
| AAGCCTTG | -0.0832 |
| CCGGAGCC | 0.303 |
| GCCTGGCC | -0.00689 |
| ATACGATA | -0.0826 |
| ACCTTGAA | -0.318 |
| CCTATCCA | -0.196 |
| GACTATGC | -0.161 |
| ACTATGAC | -0.104 |
| ATTTGTCG | 0.0564 |
| ACGAACTG | -0.0996 |
| AAATTACG | -0.0914 |
| AGGGATGC | -0.326 |
| CAAGAGGG | -0.282 |
| AGGAGTTA | -0.0113 |
| TACGGGAA | 0.288 |
| CGGGAGAA | 0.265 |
| ACCACCCG | 0.242 |
| AACGTATG | -0.369 |
| CCTCATGA | -0.109 |
| TCACATCA | -0.0958 |
| ACCTAGTC | -0.171 |
| AGGGCTAT | -0.285 |
| ATCCGTTG | 0.317 |
| TACACGAA | 0.0942 |

| Sequence | PBM E-score |
| --- | --- |
| GACCACCC | -0.0404 |
| ATGGATGA | -0.161 |
| ACACGCTG | -0.0897 |
| CGAAACCC | 0.238 |
| ATAAGCTC | 0.0278 |
| ACTTCGCT | -0.125 |
| CATAGTTA | -0.0819 |
| CTGTCGGC | 0.275 |
| AGCGTGGC | -0.147 |
| AATCTATG | 0.00551 |
| GATTTGAC | -0.0984 |
| CCAGCTGC | 0.00982 |
| GAGGACAA | -0.18 |
| CCCTGACA | -0.217 |
| CCCCGCGA | 0.16 |
| ATAGCCCA | -0.00408 |
| TACAACGA | -0.0749 |
| CAATTTGA | -0.046 |
| CGGAGGTC | 0.172 |
| AATATACT | -0.0789 |
| CCTTACAA | -0.0622 |
| AGTAGTAG | -0.107 |
| ACTTGCCC | 0.0813 |
| GGGACCAA | -0.0727 |
| GCTCAGCC | -0.0564 |

| Sequence | PBM E-score |
| --- | --- |
| CAAACTAA | 0.108 |
| AAGGATTC | -0.138 |
| TATGGTGA | -0.138 |
| CGATCCCG | 0.342 |
| GAGGGGCC | 0.0391 |
| CTCCGCCA | 0.0378 |
| GACCATAC | 0.15 |
| GGCGACCC | 0.114 |
| ACGTTGGC | -0.226 |
| CGTATTGC | 0.115 |
| AGCAGAAC | -0.166 |
| CGGGAATA | 0.417 |
| GGGGTTAC | -0.0116 |
| CTTGGACC | -0.163 |
| ACCTTCCC | 0.0875 |
| CTAGCACC | 0.0619 |
| AAGTTCAG | -0.127 |
| AGCACTTG | -0.205 |
| GACTGGTA | 0.0628 |
| AAACGCAG | -0.15 |
| AGTTAAGA | -0.0913 |
| CGCTGACC | -0.0105 |
| ACAAGGAA | 0.0488 |
| CTACTATA | 0.0219 |
| GCGCGCAA | 0.0215 |

| Sequence | PBM E-score |
| --- | --- |
| ACAATCCC | 0.266 |
| AAGTTGGT | 0.0189 |
| CAAGTGTA | -0.205 |
| CGGGCGAC | 0.141 |
| AGTCGTGA | -0.255 |
| CTATGTGC | -0.233 |
| ACTAGAGA | -0.131 |
| CCGGTCTC | 0.209 |
| AGCATGCG | -0.111 |
| AGTACTCA | -0.345 |
| GGGGGTTA | -0.214 |
| CCGGGATA | 0.292 |
| CGCCGTCC | 0.0221 |
| GTACCGGA | 0.283 |
| AGTCCATG | -0.228 |
| ACCTGAAC | -0.00703 |
| GCTGATCC | 0.144 |
| AGAATAAC | -0.166 |
| AAAATATC | 0.0374 |
| CGGTACAA | 0.323 |
| AAGATGGG | -0.125 |
| CGTTCTAA | 0.03 |
| TCACCCAA | -0.112 |
| GCCGTCGA | 0.00974 |
| ATGGAGGG | -0.299 |

| Sequence | PBM E-score |
| --- | --- |
| ATTGCCGC | 0.121 |
| GGCTCCCA | -0.0654 |
| CAACCACC | 0.0572 |
| AGGCCTTG | -0.263 |
| AAACAACG | -0.0166 |
| GAGGTCGA | -0.206 |
| GTGGATAA | -0.091 |
| AGAAGCCT | -0.227 |
| CGGCCCGC | 0.326 |
| CGGTAGAG | 0.112 |
| AGGCTGGC | -0.234 |
| GGTAGAAA | 0.166 |
| GCATCTCC | 0.0843 |
| CGCCAACC | 0.0947 |
| ACACTCTC | -0.0168 |
| AGCGAAAC | 0.0931 |
| CCGCCACA | 0.0585 |
| CTTTTTCC | 0.18 |
| AGATATAT | -0.028 |
| AACAACCT | -0.183 |
| AGGGTATC | -0.0302 |
| AACACGTC | 0.0464 |
